Numbering of substitutions follows the chain as printed.

For experiment [1], the system named is IL-6/TNF-dependent proliferation of TF-1 cells. The experiment in a line: TF-1 cell assay, stimulated with both IL-6 and TNF (Example 11). The settings on record: TF-1 cells simultaneously stimulated with IL-6 and TNF. Type of experiment: cell-based, human. The procedure: TF-1 cells were cultured in RPMI1640 with L-glut (Lonza) supplemented with 10% FCS (Gibco), Pen-Strep (Lonza) and 2 ng/ml rhGM-CSF (R&D Systems). Prior to use, the cells were washed twice in RPMI1640 in the absence of rhGM-CSF. Cells were then counted and dispensed into 96 well flat bottomed plates at a density of 4×10^4 cells per well. […] The samples were incubated in the presence of either 0.099 nM rhIL-6 (R&D Systems, cat. no. 206-IL/CF), 0.023 nM rhTNF (R&D Systems, cat. no. 210-TA) or a combination of both cytokines. The pre-mixtures were transferred to wells containing TF-1 cells which were incubated for 72 h at 37° C. in a humidified 5% CO2 atmosphere. During the last four hours of incubation, 10 μl of CCK-8 (Fluka, Sigma Aldrich) was added per well to determine the number of proliferating cells. The absorbance was measured at 450 nm (Abs450) using a microplate reader (VICTOR^3, Perkin Elmer). The data on cell growth was assessed by non-linear regression to a four-parameter dose-response curve, and the half maximal inhibitory concentration (IC50) was determined using GraphPad Prism program. The inhibition of IL-6/TNF-dependent proliferation of TF-1 cells by the inhibitory molecules was as Abs450 minus control wells that contained cells but no IL-6.

Experiment [2] deals with IL-6 trans-signaling in human umbilical vein endothelial cells (HUVECs). Nature of the experiment: HUVEC trans-signaling assay, MCP-1 readout. It is filed as cell-based. As to conditions: hIL-6 0.5 nM + soluble hIL-6Rα […], in the presence of HSA, read-out: approximate IC50, inhibition of trans-signaling (MCP-1 secretion). As to the method:
To address the trans-signaling pathway, a second assay was used. Herein, human umbilical vein endothelial cells (HUVECs) were stimulated with hIL-6 and soluble hIL-6Rα and the readout was the production of monocyte chemoattractant protein-1 (MCP-1). HUVECs (Lonza) were grown in EGM-2 bullet kit media (Lonza) and passaged in culture no more than eight times. Cells were grown until 75% confluence before use. Cells were detached using trypsin/EDTA (Lonza), resuspended and washed once in fresh medium. Next, cells were counted and dispensed into 96 well flat bottom plates at a density of 2×10^4 cells per well. Cells were cultured overnight at 37° C. in a humidified 5% CO2 atmosphere. […] The pre-mixed solutions with the test molecules and hIL-6/hIL-6Rα were then transferred to wells containing HUVECs, which were incubated for 24 h at 37° C. in a humidified 5% CO2 atmosphere. Cell free supernatant was collected after the incubation period and human MCP-1 levels were determined by sandwich ELISA using the MCP-1 Duoset ELISA development system (R&D Systems).
Half area 96-well ELISA plates were coated with anti-MCP-1 capture antibody (R&D Systems) at a concentration of 1 μg/ml. Plates were incubated overnight at 4° C., washed twice in tap water and blocked for 1 h in PBSC. […] The absorbance was measured at 450 nm using a microplate reader (Victor^3, Perkin Elmer).

Experiment [3] deals with IL-6 triggered serum amyloid-A (SAA) protein release. The experiment in a line: Serum Amyloid A (SAA) mouse model, hIL-6 challenge (Example 8). Type of experiment: in vivo, Balb/c mice. The procedure: The IL-6 targeting Z variant Z06814 (SEQ ID NO:1512) and a control Z variant Z04726 (SEQ ID NO:1535) binding an irrelevant target, were cloned and produced in fusion with the ABD variant PP013 (SEQ ID NO:1554) as described in Example 2. Four groups of Balb/c mice (n=8) were injected subcutaneously (s.c.) with various doses (0, 0.025, 2.5 or 25 mg/kg body weight) of Z06814-ABD 9 h prior to intraperitoneal (i.p.) administration of hIL-6 at 5 μg/kg (R&D Systems). A fifth group of mice (n=8) received 25 mg/kg of Z04726-ABD. Two additional control groups of mice received PBS (n=4) and 25 mg/kg of Z06814-ABD (n=8), respectively, but no subsequent IL-6 injection. After 20 h, the blood was taken by cardiac puncture and serum was collected.
Serum was assessed for the content of murine SAA by ELISA (Tridelta) according to the manufacturer's instructions. In brief, diluted serum samples were added to SAA-precoated plates together with anti-SAA-HRP. The plates were incubated for 1 h and then washed four times. TMB substrate was added for 20 min and the reaction was stopped with stop solution. The absorbance was measured at 450 nm using a microplate reader (VICTOR^3, Perkin Elmer).

Experiment [4] concerns IL-6 dependent growth of TF-1 cells. Nature of the experiment: TF-1 cell neutralization assay, classical signaling (Example 2). It is filed as cell-based, human. As to conditions: primary Z variants; 0.099 nM rhIL-6, 72 h; read-out: IC50 (M), blocking the IL-6 dependent growth of TF-1 cells. As to the method: A first assay, evaluating the classical signaling pathway, used the TF-1 cell line that proliferates in response to human IL-6, TNF and GM-CSF. TF-1 cells were cultured in RPMI1640 with L-glut (Lonza) supplemented with 10% FCS (Gibco), Pen-Strep (Lonza) and 2 ng/ml rhGM-CSF (R&D Systems). Prior to use, cells were washed twice in RPMI1640 in the absence of rhGM-CSF. Cells were then counted and dispensed into 96 well flat bottomed plates at a density of 4×10^4 cells per well. […] In addition, the ABD-fused variants were incubated with or without 9 μM rhHSA (Novozymes). The pre-mixtures of the Z variant polypeptides and hIL-6 were then transferred to wells containing TF-1 cells which were incubated for 72 h at 37° C. in a humidified 5% CO2 atmosphere. During the last four hours of incubation 10 μl of CCK-8 (Fluke, Sigma Aldrich) was added per well to determine the number of proliferating cells. The absorbance was measured at 450 nm (Abs450) using a microplate reader (Victor^3, Perkin Elmer). The data on cell growth was assessed by non-linear regression to a four-parameter dose-response curve, and the half maximal inhibitory concentration (1050) was determined using GraphPadPrism program. The inhibition of IL-6-dependent proliferation of TF-1 cells by the inhibitory molecules was as Abs450 minus control wells that contained cells but no hIL-6.

B1: Z06814-ABD: Z06814 (SEQ ID NO:1512) fused to ABD variant PP013 (SEQ ID NO:1554) (protein)
chain: VDAKYAKEEQRAWREIHLLPNLTIEQMAAFIWKLLDDPSQSSELLSEAKKLNDSQAPKLAEAKEAANAELDSYGVSDFYKRLIDKAKTVEGVEALKDAILAALP
modifications: Engineered IL-6 binding polypeptide; Engineered albumin binding polypeptide
Consider B1, for which the “viability reached at the highest concentrations” value in experiment [1] is listed as 50%. Besides, the IC50 (commonly the concentration that inhibits the measured activity by half) is about 1 nM in experiment [2] and 8e-10 M in experiment [4]. In experiment [3] (0.025, 2.5 or 25 mg/kg s.c. 9 h before hIL-6 5 μg/kg), the “SAA protein levels, dose dependence” value is recorded as “significantly lower SAA protein levels were measured in a dose-dependent manner”. Moreover, the “SAA protein levels at highest dose” value in experiment [3] (25 mg/kg body weight) is “as low as for animals given no hIL-6 injection”.

B2: Z06809-ABD: Z06809 (SEQ ID NO:1511) fused to ABD variant PP013 (SEQ ID NO:1554) (protein)
chain: B1 chain with Q10R, R11D, L18A, I24V, E25D, M27L, A28V, W32T, L35F
modifications: Engineered IL-6 binding polypeptide; Engineered albumin binding polypeptide
Consider B2, for which, in experiment [4], the IC50 came out at 1e-08 M.

B3: Z06799-ABD: Z06799 (SEQ ID NO:1508) fused to ABD variant PP013 (SEQ ID NO:1554) (protein)
chain: B1 chain with R14T, L18V, I24V, E25Q, W32T, L35F
modifications: Engineered IL-6 binding polypeptide; Engineered albumin binding polypeptide
As for B3, the concentration for half-maximal inhibition (IC50) in experiment [4] turned out to be 2.4e-09 M.

B4: Z06829-ABD: Z06829 (SEQ ID NO:1513) fused to ABD variant PP013 (SEQ ID NO:1554) (protein)
chain: B1 chain with R14T, L18V, I24V, E25S, A28S, W32S, L35F
modifications: Engineered IL-6 binding polypeptide; Engineered albumin binding polypeptide
With B4, the concentration for half-maximal inhibition (IC50) in experiment [4] worked out at 1.5e-08 M.

B5: Z06789-ABD: Z06789 (SEQ ID NO:1505) fused to ABD variant PP013 (SEQ ID NO:1554) (protein)
chain: B1 chain with Q10R, R11Q, R14W, L18S, I24V, E25D, W32V, L35M
modifications: Engineered IL-6 binding polypeptide; Engineered albumin binding polypeptide
For the molecule B5, the concentration for half-maximal inhibition (IC50) in experiment [4] was about 1e-07 M.

The values are drawn from US10633423B2, “IL-6-binding polypeptide complex” (AFFIBODY AB, priority 2014, dated 2020).
